Measurements taken from patent US8304419B2, “Chemical compounds” (priority 2007, dated 2012).
Structures can show the parent of a compound that is named as a salt.

How the values were obtained:
Experiment in all cases: microbe, parasite or virus in culture
HIV-1 K103N RT mutant = conditions: Human immunodeficiency virus 1, HeLa, read-out: IC50 against K103N, HeLa cell assay
HIV-1 V106A RT mutant = conditions: Human immunodeficiency virus 1, HeLa, read-out: IC50 against V106A, HeLa cell assay
HIV-1 Y181C RT mutant = conditions: Human immunodeficiency virus 1, HeLa, read-out: IC50 against Y181C, HeLa cell assay
HIV-1 Y188L RT mutant = conditions: Human immunodeficiency virus 1, HeLa, read-out: IC50 against Y188L

Measured: IC50

Cc1cc(C#N)cc(Oc2c(Cl)ccc(CNC(=O)c3[nH]cnc3Cl)c2F)c1 [Example 145, 4-chloro-N-({4-chloro-3-[(3-cyano-5-methylphenyl)oxy]-2-fluorophenyl}methyl)-1H-imidazole-5-carboxamide]
< 10 nM: all assays above

C=Cc1cc(C#N)cc(Oc2c(Cl)ccc(CNC(=O)c3[nH]c(C)nc3Cl)c2F)n1 [Example 272, 4-Chloro-N-({4-chloro-3-[(4-cyano-6-ethenyl-2-pyridinyl)oxy]-2-fluorophenyl}methyl)-2-methyl-1H-imidazole-5-carboxamide]
< 10 nM: all assays above

CCCc1cc(C#N)cc(Oc2c(Cl)ccc(CNC(=O)c3[nH]cnc3Cl)c2F)c1 [Example 151, 4-chloro-N-({4-chloro-3-[(3-cyano-5-propylphenyl)oxy]-2-fluorophenyl}methyl)-1H-imidazole-5-carboxamide]
< 10 nM: all assays above

Cc1cc(C#N)cc(Oc2c(Br)ccc(CNC(=O)c3[nH]c(N)nc3Cl)c2F)c1 [Example 240, 2-amino-N-({4-bromo-3-[(3-cyano-5-methylphenyl)oxy]-2-fluorophenyl}methyl)-4-chloro-1H-imidazole-5-carboxamide trifluoroacetate]
< 10 nM: all assays above

CCc1cc(C#N)cc(Oc2c(Cl)ccc(CNC(=O)c3[nH]c(C)nc3Cl)c2F)n1 [Example 274, 4-Chloro-N-({4-chloro-3-[(4-cyano-6-ethyl-2-pyridinyl)oxy]-2-fluorophenyl}methyl)-2-methyl-1H-imidazole-5-carboxamide]
< 10 nM: all assays above

Cc1cc(C#N)cc(Oc2c(Cl)ccc(CNC(=O)c3[nH]c(C)nc3Cl)c2F)c1 [Example 305, 4-chloro-N-({4-chloro-3-[(3-cyano-5-methylphenyl)oxy]-2-fluorophenyl}methyl)-2-methyl-1H-imidazole-5-carboxamide trifluoroacetate]
< 10 nM: all assays above

Cc1nc(Br)c(C(=O)NCc2ccc(Br)c(Oc3cc(Cl)cc(C#N)c3)c2F)[nH]1 [Example 233, 4-bromo-N-({4-bromo-3-[(3-chloro-5-cyanophenyl)oxy]-2-fluorophenyl}methyl)-2-methyl-1H-imidazole-5-carboxamide]
< 10 nM: all assays above

N#Cc1cc(Cl)cc(Oc2c(Cl)ccc(CNC(=O)c3[nH]ccc3Br)c2F)c1 [Example 204, 3-bromo-N-({4-chloro-3-[(3-chloro-5-cyanophenyl)oxy]-2-fluorophenyl}methyl)-1H-pyrrole-2-carboxamide]
< 10 nM: all assays above

C#Cc1cc(Cl)cc(Oc2c(Cl)ccc(CNC(=O)c3[nH]cnc3Cl)c2F)c1 [Example 293, 4-chloro-N-({4-chloro-3-[(3-chloro-5-ethynylphenyl)oxy]-2-fluorophenyl}methyl)-1H-imidazole-5-carboxamide]
< 10 nM: all assays above

N#Cc1cc(Cl)cc(Oc2c(Br)ccc(CNC(=O)c3[nH]cnc3Br)c2F)c1 [Example 377, 4-bromo-N-({4-bromo-3-[(3-chloro-5-cyanophenyl)oxy]-2-fluorophenyl}methyl)-1H-imidazole-5-carboxamide]
< 10 nM: all assays above

C=C(C)c1cc(C#N)cc(Oc2c(Cl)ccc(CNC(=O)c3[nH]cnc3Cl)c2F)c1 [Example 158, 4-chloro-N-[(4-chloro-3-{[3-cyano-5-(1-methylethenyl)phenyl]oxy}-2-fluorophenyl)methyl]-1H-imidazole-5-carboxamide]
< 10 nM: all assays above

N#Cc1cc(Oc2c(Cl)ccc(CNC(=O)c3[nH]cnc3Cl)c2F)cc(C2CC2)c1 [Example 152, 4-chloro-N-({4-chloro-3-[(3-cyano-5-cyclopropylphenyl)oxy]-2-fluorophenyl}methyl)-1H-imidazole-5-carboxamide]
< 10 nM: all assays above

N#Cc1cc(Cl)cc(Oc2c(Cl)ccc(CNC(=O)c3[nH]cnc3Cl)c2F)c1Cl [Example 144, 4-chloro-N-({4-chloro-3-[(2,5-dichloro-3-cyanophenyl)oxy]-2-fluorophenyl}methyl)-1H-imidazole-5-carboxamide]
< 10 nM: all assays above

CNc1nc(Cl)c(C(=O)NCc2ccc(Cl)c(Oc3cc(Cl)cc(C#N)c3)c2F)[nH]1 [Example 363, 4-chloro-N-({4-chloro-3-[(3-chloro-5-cyanophenyl)oxy]-2-fluorophenyl}methyl)-2-(methylamino)-1H-imidazole-5-carboxamide trifluoroacetate]
< 10 nM: all assays above

C=CCc1cc(C#N)cc(Oc2c(Cl)ccc(Cn3cnc4nc[nH]c4c3=O)c2F)c1 [Example 373, 3-({6-chloro-2-fluoro-3-[(6-oxo-6,7-dihydro-1H-purin-1-yl)methyl]phenyl}oxy)-5-(2-propen-1-yl)benzonitrile]
< 10 nM: all assays above

Cc1nc(Cl)c(C(=O)NCc2ccc(C3CC3)c(Oc3cc(Cl)cc(C#N)c3)c2F)[nH]1 [Example 270, 4-Chloro-N-({3-[(3-chloro-5-cyanophenyl)oxy]-4-cyclopropyl-2-fluorophenyl}methyl)-2-methyl-1H-imidazole-5-carboxamide]
< 10 nM: all assays above

Cc1nc(Br)c(C(=O)NCc2cc(Br)c(Br)c(Oc3cc(Cl)cc(C#N)c3)c2F)[nH]1 [Example 234, 4-bromo-N-({4,5-dibromo-3-[(3-chloro-5-cyanophenyl)oxy]-2-fluorophenyl}methyl)-2-methyl-1H-imidazole-5-carboxamide trifluoroacetate]
< 10 nM: all assays above
